Measurements as given in paper PMC10726135.
This is one part of the list. At the low end of the ranking the order means little. Measured with an extract: partners may take part in the binding.

Biological target: T1, HNF4alpha2 (COS-7 nuclear extract) (UniProt P41235)
T1 sequence: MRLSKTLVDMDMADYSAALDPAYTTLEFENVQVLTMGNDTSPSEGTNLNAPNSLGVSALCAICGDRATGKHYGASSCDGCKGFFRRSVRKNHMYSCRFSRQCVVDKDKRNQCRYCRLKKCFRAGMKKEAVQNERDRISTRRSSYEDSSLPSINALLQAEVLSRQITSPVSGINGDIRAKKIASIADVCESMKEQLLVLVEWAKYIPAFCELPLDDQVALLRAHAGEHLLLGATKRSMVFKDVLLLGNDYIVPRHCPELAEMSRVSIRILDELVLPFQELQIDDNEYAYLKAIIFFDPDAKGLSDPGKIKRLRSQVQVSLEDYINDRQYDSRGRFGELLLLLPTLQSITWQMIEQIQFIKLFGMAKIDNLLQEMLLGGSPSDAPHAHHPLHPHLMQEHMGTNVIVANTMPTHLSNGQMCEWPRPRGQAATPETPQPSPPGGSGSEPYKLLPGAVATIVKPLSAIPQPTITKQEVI
Experiment: protein-binding microarray
Conditions: COS-7 nuclear extract on double-stranded Agilent 4x180k PBM; binding buffer, salt, pH and temperature not given; high values mean tight binding; double strand, one strand shown; sequences stand for … in …GCCTAGGGAGATTAGAGTATCGGTCGA

Sequence	binding signal (log2 normalized intensity)
TATCCCTCCGCCTCCCTCCCCCTTTCTCCG	4.83
TCATATATGCATTTGTCTCAGGTGGGCAGA	1.5
GGCCCCCACTAGAGAGACCGTCCCTGGGTA	2.98
AGTCCTTCTAAAGCAAATTTATAGGCACTA	-0.984
TTAACCTCTATTGACCTTCTTATTTGGAGA	2.04
GTAACACAGAGGCAGTGGGACAATGAAGCC	-1.06
TCTTTGTTCTAGTAAGGCCTTCAAATGATT	1
GTCACTCAGCCCGAGAAACGATGTGAGGTC	0.454
ATACTTTCAGCTAGCTGAGTGAGTAGGTTC	1.31
GCCCGTGTGGGCGGGTGCAGCTTCCACCTG	-1.22
CTGCCTCTCTGTGGAATCCTGCTAGCAGCT	-1.08
CTATTATGCCTTGACTTCAAATCATACTGA	0.897
CCGCCTTCACTCCCCTGACAGCATGTTCGG	0.579
CAACAGGTCCAAGGTTCAGAGCCTGGCTGG	2.71
GAGGAAAAGCTGTCTACAAACACAGAAGTG	-1.05
CAAGGACTGAAAGAACACAGCGCAGCACAC	-1.15
CAGGACGCTACCCGCTTGGCGTAGGCAACT	-1.1
ACAACCTACTCTTTCTCTGATGTCTGCTGA	1.03
TCCTGCTGTTCCTTCAACACACAAGGCCCA	1.08
TAGCACTCTGGACTCTGAATCCAGCGATCC	1.83
GGGAAGCTGTGTGAAGTGACTTGCCCTGTT	1.85
CTGCCTTTCCCAGATGGATTGATAGACTTA	0.627
CACACACACACACATTGCAGTATGCCCCCC	5.1
ATCTTATCAGAAACACACCCTTGGGGCTGA	-1.05

Sequence	binding signal (log2 normalized intensity)
CAACCCTTGACCCCAGTAACAAAGGAAAGA	3
ATTACATGGAAGCCTTACCAGTAGGACCAC	-1.05
AGACATGGACTCTGGGATCTCAGGGTGGAC	1.7
CTCGTGGCCTCCACACATTGCCACACTATT	-1.14
CCGGGCGGCAGCACAAGGCGGTAGCCATGG	-1.16
GACCCCATACTTCAGCAATTTCTTAGTAAA	1.07
GAGTACACACTGTAAAATTTCATGGCATTG	-0.815
TTCAAAGGAGGAGGCCTAGGCAGTCCACAG	-1.16
GGGTCACGTGGGGCCGGTACAAAAGGCCAA	1.47
GAAAAAGGTAAGGAGATAAGGTGATAAGGG	-1.12
TGCCCTATGTCCTCCAGCTCTTGGGGAACA	0.0325
AAAAGGGAGTTTTCTGCTCTCAACTAGAGA	-1.1
CTGCTCCCCGCCTTGGCCTCCCGGAGAGGC	1.87
GTCCAGTGACGGGTACAAGGAGGCCCCAAC	-0.646
AACAGTGAATGTTTCGTAATATTTAGGTGT	1.49
GGGACAAAGTTCATCTGGGCTTTAGGTTTG	2.48
CAAAGTGTGATTAACAAGCATTTTGTTCCC	1.17
GTCTTCTGTTTGCAAATGGATGAATTTTAT	1.36
CTGTAGAAAGACTAAAGTTCAGGAGGGAGG	-0.867
TTTGTCCCAAGGAGAATTTCACAAAGGGCA	0.859
GAATCCCAGTTCTGATACACTCGCCGTGTG	-0.806
AGTTTTTCTTGCTCTTTACCCCTGCAAGGA	2.02
GTCAGGCTGCTCAGCTGCCTAGAGGCCTGG	-1.15
AAAGGGAATAACCTTTGAGCTGAGTTCCAC	3.52

Sequence	binding signal (log2 normalized intensity)
TGGGCTGGACTAAGAGTAGCGGTTTCTGCT	-1.08
AGTTGCCTGATGACAACTGAATGTGACCTT	4.35
TGGACAACTGTACTTTGGACTGGGGACCTG	5.1
AGTTGCTCAGTGTTCCACAGCAAGTAAATT	-1.11
CTTCTCCCTCTTATCAGCTGCTAAGTCTTT	0.722
GAATGAGGGAGGCAGCCACCTAGGCCGGTC	-1.12
GTATGTGGACTTTCAACTGCAGGGGGGTGG	2.58
AATGCTGCAATTCTCTTTGCCAAAGCATAG	-0.944
CAAATAAACCTTTGACCAATTGACCCTATC	3.78
CTTATCTGGTGTGCTTTCTGTCCTCTCAAA	0.945
CTTTATCTAAGTAAACTAGTGATGTGGAAA	0.899
AAAACAGCAGAGCACGATGAATAGGGACGT	-1.13
GGATCGGAACCCCACCCCCACGCCCCCCAG	7
ACCTGGAGCCCTTAGGGTCAATGGGACATT	2.32
GCACCAGAGATAATATGCTTACTTAACTCC	-1.06
TGCTCATTGACCCTTAGGCCAAGGCTTACT	1.8
TTTGTCTGTGTAGACTCATCTGGTGTCATT	1.62
GTTGCACCTCTTATCAAGCGTGCACCCCAG	2.1
TGAGTGTTTGACCTTTCACCCAGAAAAGGC	5.02
TTGTGTAAGTGTGGGTTTAAGTAAGCCCCC	3.86
TGGTTTGCCTCTCTTAGGTGACAGCCTTTT	0.682
TCCCTCCCAGTACAAAGTTCACTTTCTTGT	4.74
AGTTTACTTCATCTAAGTGGGTCTAGGTTC	1.67
AGCGGCCATTTACTGACTAAAGGTTAAACA	2.13
